Data from the supplement of paper PMC4604168 (melanoma cell lines).
Some of the results follow. Single values are uncertain, as repeats are few or missing.

The compounds below were run on WM3526 (assay: cell count relative to DMSO control; melanoma cells; higher = more viable cells). Conditions: library dose: standard library concentration; 72 h.
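Further: cells treated in 1,536-well plates, then fixed and DAPI-stained, with nuclei counted from automated high-throughput microscope images.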

Compound	cell count [%]
CS(=O)(=O)CCNCc1ccc(-c2ccc3ncnc(Nc4ccc(OCc5cccc(F)c5)c(Cl)c4)c3c2)o1 [lapatinib] + Oc1nc(-c2ccc(C(F)(F)F)cc2)nc2c1CSCC2 [XAV939] (first compound 4 µM, partner dose 10 µM)	98.8
C=CCNC1=C2C[C@@H](C)C[C@H](OC)[C@H](O)[C@@H](C)/C=C(\C)[C@H](OC(N)=O)[C@@H](OC)/C=C\C=C(/C)C(=O)NC(=CC1=O)C2=O [Tanespimycin] + O=C(O)C(=O)Nc1sc2c(c1C(=O)O)CCNC2 [TCS401] (first compound 0.01 µM, partner dose 8.33333 µM)	67.2
C=CCNC1=C2C[C@@H](C)C[C@H](OC)[C@H](O)[C@@H](C)/C=C(\C)[C@H](OC(N)=O)[C@@H](OC)/C=C\C=C(/C)C(=O)NC(=CC1=O)C2=O [Tanespimycin] + Oc1nc(-c2ccc(C(F)(F)F)cc2)nc2c1CSCC2 [XAV939] (first compound 0.01 µM, partner dose 10 µM)	75
CNC(=O)c1cc(Oc2ccc(NC(=O)Nc3ccc(Cl)c(C(F)(F)F)c3)cc2)ccn1 [sorafenib] + CCc1ccc(CCOc2ccc(CC3SC(=O)NC3=O)cc2)nc1 [pioglitazone] (first compound 2 µM, partner dose 10 µM)	89.7
C[C@@H](Oc1cc(-c2cnn(C3CCNCC3)c2)cnc1N)c1c(Cl)ccc(F)c1Cl [Crizotinib] + O=S(=O)(c1ccccc1)N(CC(F)(F)F)c1ccc(C(O)(C(F)(F)F)C(F)(F)F)cc1 [T0901317] (first compound 1 µM, partner dose 7 µM)	68.5
CN1CCN(c2ccc3nc(-c4c(N)c5c(F)cccc5[nH]c4=O)[nH]c3c2)CC1 [Dovitinib] + O=C(O)C(=O)Nc1sc2c(c1C(=O)O)CCNC2 [TCS401] (first compound 0.5 µM, partner dose 8.33333 µM)	69.7
CS(=O)(=O)CCNCc1ccc(-c2ccc3ncnc(Nc4ccc(OCc5cccc(F)c5)c(Cl)c4)c3c2)o1 [lapatinib] + N#Cc1c(O)c2c(-c3ccc(-c4ccccc4O)cc3)csc2[nH]c1=O [A769662] (first compound 4 µM, partner dose 10 µM)	70.3
CS(=O)(=O)CCNCc1ccc(-c2ccc3ncnc(Nc4ccc(OCc5cccc(F)c5)c(Cl)c4)c3c2)o1 [lapatinib] + O=C(O)C(=O)Nc1sc2c(c1C(=O)O)CCNC2 [TCS401] (first compound 4 µM, partner dose 8.33333 µM)	79.8
CN1CCN(c2ccc3nc(-c4c(N)c5c(F)cccc5[nH]c4=O)[nH]c3c2)CC1 [Dovitinib] + N#Cc1c(O)c2c(-c3ccc(-c4ccccc4O)cc3)csc2[nH]c1=O [A769662] (first compound 0.5 µM, partner dose 10 µM)	75.4
C[C@@H](Oc1cc(-c2cnn(C3CCNCC3)c2)cnc1N)c1c(Cl)ccc(F)c1Cl [Crizotinib] + O=C(Nc1ccccc1)c1cc([N+](=O)[O-])ccc1Cl [GW9662] (first compound 1 µM, partner dose 10 µM)	88
